# The campaign covered roughly 340,000 compounds. About 12,000 (3.5%) were called active. Inconclusive results, whose numbers are uncertain, are shown with a selection of clear calls. The call rests on the fitted dose curve; in most records, active means well fitted inhibition curve with a large enough effect; inconclusive means small, poorly fitted or top-dose-only effect, or another doubt; inactive means no such curve, though single readings can be large or run the other way. No potency is given beside an inconclusive call; the fits are too rough.
# Assay: qHTS Assay for Inhibitors of Hepatitis C Virus (HCV)
# Conditions: Huh7.5.1 HCVcc-Cre (HCVcc is cell-culture hepatitis C virus) infection, luciferase reporter, 44 h; activity change, negative = inhibition: at 41.8 µM (top of the series)
# How it was run: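 After 44 h co-culture of compound, cells and HCVcc-Cre (~0.5 moi), substrate is added for 15 min at room temperature and luciferase measured over 15 sec. Cells were seeded at 1,000/well and pre-cultured 4 h.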
# On the % scale 0 is the no-effect control and ±100 the full control effect; potency means the concentration at half of the fitted maximal effect; tags describe the fitted curve by direction and shape.
SMILES,Potency,"activity change, negative = inhibition"
CC(C)(C)c1ccc(C(=O)O[C@H]2[C@H](Cc3ccccc3)NS(=O)(=O)[C@H]3C[C@@H]4C=C[C@]23O4)cc1,"inconclusive [inhibitor, single point]",
NCCCC[C@@H](C(=O)N1CCNCC1)n1cc([C@@H](N)CO)nn1,inactive,
O=C1c2cccc3cccc(c23)C(=O)N1CCN1CCN(CC(O)COCc2ccc(Cl)cc2)CC1 (stereo not drawn),active: 11.2 µM,
COc1ccc(Br)cc1CNc1ccc(O)cc1,"inconclusive [inhibitor, single point]",
COc1ccc(S(=O)(=O)Nc2ccc3c(c2)n(C)c(=O)n3C)cc1OC,active: 3.16 µM,
CC(=O)OCC(=O)[C@@]12OC3(CCCC3)O[C@@H]1C[C@H]1[C@@H]3CCC4=CC(=O)C=C[C@]4(C)[C@@]3(F)[C@@H](O)C[C@@]12C,inactive,
COc1cccc(-c2nc(-c3ccc4c(c3)NC(=O)CO4)cs2)c1,active: 14.1 µM,
CCOc1cccc(CN2CCC(n3nccc3NC(=O)CCCc3ccccc3)CC2)c1,"inconclusive [inhibitor, single point]",
Cc1nc(C2CCCCC2)c(-c2ccccc2)c(N2CCOC2=O)c1C,"inconclusive [inhibitor, single point]",
COc1ccc(OC)c(-c2c3cc(O)c(=O)cc-3oc3cc(O)c(O)cc23)c1,inactive,
O=C(NCCc1ccccn1)/C(=C/c1ccco1)NC(=O)c1ccccc1,inactive,
CC(CCc1ccccc1)NC(=O)Cc1cccs1 (stereo not drawn),inactive,
CCCCC(NC(=O)c1ccc(C#N)cc1)C(=O)NCCC (stereo not drawn),"inconclusive [inhibitor, single point]",
O=C(NC(=O)N1CCN(C(c2ccccc2)c2ccccc2)CC1)c1ccccc1,"inconclusive [inhibitor, full curve]",
O=C(Cn1cc(/C=N/NC(=O)c2cccc3ccccc23)c2ccccc21)Nc1ccc(F)cc1,inactive,
COc1ccc2nc(N3CCC(C)CC3)c(C#N)cc2c1,"inconclusive [inhibitor, single point]",
CN(Cc1nc(-c2ccccc2)no1)C(=O)c1ccco1,inactive,
C=C1C(=O)[C@@]23[C@H](O)C[C@@H]4C(C)(C)CC[C@H](O)[C@@]4(C)[C@@H]2CC[C@@H]1[C@H]3O,"inconclusive [inhibitor, partial curve]",
CCC(=O)/C(=C(/O)c1ccccc1)c1nc2ccccc2[nH]1,"inconclusive [inhibitor, partial curve]",
O=S(=O)(c1ccc(Cl)c(NC(=S)N/N=C/c2c(F)cccc2F)c1)N1CCOCC1,inactive,
COc1ccc2[nH]cc(CCNC(=O)Cc3c(F)cccc3Cl)c2c1,"inconclusive [inhibitor, single point]",
O=C(c1ccc2nc(-c3ccccc3)c(-c3ccccc3)nc2c1)N1CCCCC1,inactive,
CC(=O)Nc1ccc(OS(=O)(=O)c2ccc(Cl)cc2)cc1,inactive,
O=C(CN1C(=O)/C(=C\c2ccccc2Br)Oc2ccccc21)NCCCN1CCOCC1,"inconclusive [inhibitor, single point]",
O=C(Nc1ccon1)c1csc2c1CCCC2,"inconclusive [inhibitor, single point]",

SMILES,Potency,"activity change, negative = inhibition"
Cc1cc(C(=O)COC(=O)C2=COCCO2)c(C)n1-c1ccc2c(c1)OCO2,inactive,
Cc1csc(CN(C)C(=O)CC2C(=O)NCCN2Cc2ccc(F)c(F)c2)n1 (stereo not drawn),inactive,
S=C(Nc1ccccc1)Nc1ccc(Cl)cn1,"inconclusive [inhibitor, partial curve]",
c1ccc2c(c1)NC1(CCCC1)n1c-2nc2ccccc21,active: 11.2 µM,
COc1ccccc1/C=N/NC(=O)c1ccc(Cn2nc([N+](=O)[O-])cc2C)cc1,"inconclusive [inhibitor, full curve, poor fit]",
Cc1ccc(NC(=O)C2CCN(S(=O)(=O)c3cccc(C(F)(F)F)c3)CC2)nc1,"inconclusive [inhibitor, partial curve]",
CC1(C)CC(=O)C(=C2SCCCS2)C(=O)C1,inactive,
CCOC(=O)c1c(C)oc2cc(Br)c(OC)cc12,"inconclusive [inhibitor, partial curve]",
Cn1nnc2c[n+](CC(=O)c3ccc4ccccc4c3)cc(Br)c21,"inconclusive [inhibitor, partial curve]",
COc1ccc2nc(N/C(N)=N/C(=S)Nc3ccc(C)c(C)c3)nc(C)c2c1,active: 3.98 µM,
Fc1ccc(-c2[nH]ncc2-c2nnnn2-c2ccccc2)c(F)c1,inactive,
COc1ccc2oc(C(=O)N3CCN(C(c4ccccc4)c4ccccc4)CC3)c(C)c2c1,"inconclusive [inhibitor, partial curve]",
C=CCn1c2ccccc2c(=O)c2cc(C#CC[C@@H](C)O)ccc21,active: 12.6 µM,
O=S(=O)(O/N=C1\CCCc2ccccc21)c1ccc(Cl)cc1,inactive,
CCOC(=O)c1c(-c2ccc(Cl)cc2)csc1NC(=O)CNCc1ccco1,"inconclusive [inhibitor, single point]",
CNCCC1Sc2ccccc2Oc2ccccc21 (stereo not drawn),inactive,
Nc1ccc2nc(-c3ccccc3)sc2c1,"inconclusive [inhibitor, single point]",
COc1cccc(CN2CCN(C(=O)c3ccc(-c4ccccc4)cc3)CC2)c1OC,inactive,
COC(=O)c1cc2c(n1S(=O)(=O)c1ccc(C)cc1)C(=O)C(=O)c1[nH]cc(C(=O)OCc3ccccc3)c1-2,"inconclusive [inhibitor, full curve]",
CC1(C)CC(=O)C=C(c2cccc3c2oc2ccccc23)C1,"inconclusive [inhibitor, partial curve]",
CSc1cccc(NS(=O)(=O)c2ccc3c(c2)CCN3C(C)=O)c1,active: 5.62 µM,
Cc1ccc(N(C)S(=O)(=O)c2cccc(C(=O)NCCCN3CCCC3=O)c2)cc1,inactive,
COc1cc(CN/C(C)=C(\C#N)C(N)=O)cc(OC)c1OC,inactive,
COc1ccc(C)cc1NC(=O)CN1CCCC1c1ccc2c(c1)OCCCO2 (stereo not drawn),"inconclusive [inhibitor, partial curve]",
O=C(CSc1ncc(-c2ccccc2)n1C1CCCC1)N1CCc2ccccc21,"inconclusive [inhibitor, single point]",

SMILES,Potency,"activity change, negative = inhibition"
Cc1ccccc1-c1cccc([C@@H]2C[C@H]3[C@H](CON3C)CN2Cc2cc(Cl)cc(Cl)c2)c1,,inactive: 9.93% [at 8.37 µM]
Cc1cccc(N2CCN(CCCNC(=O)c3ccc(NC(=O)C4=CSCCO4)cc3)CC2C)c1 (stereo not drawn),active: 11.2 µM,
CCOC(=O)c1cc(=O)n2nc(-c3ccccc3F)nc2s1,inactive,
COc1ccc(CCNC(=O)CN2C(=O)COc3ccc(S(=O)(=O)N4CCCC4)cc32)c(OC)c1,"inconclusive [inhibitor, full curve]",
Cc1cccc(C2c3[nH]c4ccccc4c3CCN2C(=O)Cc2nc(-c3ccccc3)n[nH]2)n1 (stereo not drawn),"inconclusive [inhibitor, single point]",
C=CCOC(=O)C1=C(C)NC(=O)NC1/C=C/c1ccccc1OC (stereo not drawn),"inconclusive [inhibitor, full curve]",
O=C(c1ccccc1)c1ccc(OCCO)cc1,inactive,
Cc1ccc2c(c1)c(C)c(C)n2CC(O)Cn1nc(C)c(Br)c1C (stereo not drawn),inactive,
Cc1sc(NC(=O)c2ccco2)c(CN2CCC(C)CC2)c1C,"inconclusive [inhibitor, single point]",
COC(=O)C1=C(c2ccc(OCc3ccccc3)cc2)C[C@@H]2CC[C@H]1N2C(=O)NCCCc1ccccc1,active: 6.31 µM,
O=[N+]([O-])c1ccc(S(=O)(=O)Nc2nnc(C(F)(F)F)s2)cc1,inactive,
CCN(c1ccccc1)c1nc(C#N)nc(N(CC)c2ccccc2)n1,"inconclusive [inhibitor, single point]",
O=C(CN1C(=O)CCC1=O)Nc1nc(-c2ccccn2)cs1,"inconclusive [inhibitor, single point]",
CCCCCN(C(=O)CCC(=O)OCC(=O)N1CCCCC1CC)c1c(N)n(CCCC)c(=O)[nH]c1=O (stereo not drawn),inactive,
C/C(=N/NC(=S)Nc1ccccc1)c1ccc2c(c1)OCO2,"inconclusive [inhibitor, single point]",
Cc1nnc(SCC(=O)Nc2ccc(N3CCOCC3)cc2)n1Cc1ccccc1,"inconclusive [inhibitor, single point]",
CCN1Cc2c(/C=C/c3ccccc3)nc3ccc(OC)cc3c2N(c2cccc(Cl)c2)C1,active: 17.8 µM,
COCCNC(=O)c1cccc(OC2CCN(Cc3ccc(C(C)C)cc3)CC2)c1,"inconclusive [inhibitor, single point]",
COc1ccc(OCC(=O)NC2CCCc3ccccc32)cc1 (stereo not drawn),"inconclusive [inhibitor, partial curve]",
CCN1CCCC1CNC(=O)c1cc2c(OC)c(OC)c(OC)cc2[nH]1 (stereo not drawn),"inconclusive [inhibitor, single point]",
Cc1ccc(-c2cc3ccccc3nc2N2CCCC2)cc1,"inconclusive [inhibitor, single point]",
O=C(CN1CCSC1=NCc1ccccc1)c1ccc(Cl)cc1,active: 12.6 µM,
Oc1ccc(/C=N/Nc2ccnc3cc(Cl)ccc23)c(O)c1O,"inconclusive [inhibitor, single point]",
